# Data taken from PubChem BioAssay AID504832 (National Center for Advancing Translational Sciences (NCATS), 2011).
# Hit rate of the full screen: of about 310,000 compounds, about 18,000 (5.8%) were called active. Inconclusive means that the source gave no clear call. Such entries were picked first, then a sample of the others. Calls come from the whole dose curve; as a rule, active = well fitted inhibition curve with a large enough effect; inconclusive = small, poorly fitted or top-dose-only effect, or another doubt; inactive = no such curve, though single readings can be large or run the other way. Potencies of inconclusive entries are left out as doubtful fits.
# Test: Primary qHTS for delayed death inhibitors of the malarial parasite plastid, 48 hour incubation
# Details: P. falciparum luciferase growth in erythrocytes; series mostly up to 28.7 µM; activity change, negative = inhibition: at the top concentration
# Procedure, shortened: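 Here the parasites carry a stable luciferase gene and grow inside erythrocytes in Albumax-based RPMI medium with compound for one erythrocytic cycle. Activity is scored as loss of luminescent signal.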
# % is set by controls: 0 for no effect and ±100 for the full control effect; potency is the fitted concentration of half-maximal effect; tags give direction and shape of the fitted curve.
Compound,Potency,"activity change, negative = inhibition"
COc1ccc(C2=NN(C(=O)c3cccnc3)C(c3ccccc3)C2)cc1 (stereo not drawn),"inconclusive [inhibitor, partial curve, poor fit]",
COc1ccc(NC(=O)N2CCCC(c3ccccc3)C2)cc1 (stereo not drawn),,inactive: -28.5%
COc1ccc2c(c1)CC/C(=C\C=C\c1ccccc1)C2=O,"inconclusive [inhibitor, partial curve, poor fit]",
CSC(=S)N/N=C/c1c[nH]c2ccccc12,,inactive: 17.1%
c1ccc2c(c1)oc1c(N3CCN(Cc4ccc5c(c4)OCO5)CC3)ncnc12,"inconclusive [inhibitor, single point]",
COCC(C)n1c(C)cc(C(=O)CSc2nc3ccccc3c(=O)[nH]2)c1C (stereo not drawn),"inconclusive [inhibitor, single point]",
CCCn1c(N)c(C(=O)CN(C)CC(=O)Nc2ccccc2C(F)(F)F)c(=O)[nH]c1=O,"inconclusive [inhibitor, single point]",
O=C(COc1ccc(S(=O)(=O)N2CCCCC2)cc1)N1CCN(Cc2ccccc2)CC1,"inconclusive [inhibitor, partial curve]",
COc1cccc(NC(=O)CN2CCN(S(=O)(=O)c3ccc(F)cc3)CC2)c1,,inactive: 7.75%
CN(CC(=O)Nc1ccc(OC(F)(F)F)cc1)C1CCCCC1,"inconclusive [inhibitor, full curve, poor fit]",
CC[C@@H]1C=C(C)C[C@H](C)C[C@H](OC)[C@H]2O[C@@](O)(C(=O)C(=O)N3CCCC[C@H]3C(=O)O[C@H](/C(C)=C/[C@@H]3CC[C@@H](O)[C@H](OC)C3)[C@H](C)[C@@H](O)CC1=O)[C@H](C)C[C@@H]2OC,active: 2.33 µM,
C=CCn1c(COc2ccc(F)cc2)nnc1SCC(=O)NC(=O)NCc1ccco1,"inconclusive [inhibitor, single point]",
Cc1ccc(Cn2ncc3c(NN)ncnc32)cc1,"inconclusive [inhibitor, single point]",
CCOC(=O)N1CCN(CC(=O)Nc2sc(CC)cc2C(=O)c2ccc(OC)cc2)CC1,"inconclusive [inhibitor, full curve]",
CCCn1cc([C@@H]2C[C@H]3CN(Cc4cccc(Cl)c4)C(=O)[C@]34CCCN24)c(C)n1,"inconclusive [inhibitor, single point]",
CCOC(=O)C1=C(C)NC(C)=C(C(=O)OCC)C1C(=O)OCC(=O)NC(C)c1ccccc1 (stereo not drawn),"inconclusive [inhibitor, partial curve]",
CC(=O)N(C(C)=O)c1nc2nc(C)cc(C)n2n1,,inactive: 14%
COc1ccc(NC(=O)C2=C(C)Nc3nc(CCCO)nn3C2c2ccc(OC)c(OC)c2)cc1 (stereo not drawn),,inactive: 8.53%
CCN(CC)CCN(C(=O)c1ccc2c(c1)CCCC2)c1nc2ccc(OC)cc2s1,"inconclusive [inhibitor, single point]",
Cc1cc(F)ccc1NC(=S)NC1CCCC1,"inconclusive [inhibitor, single point]",
COc1cc(C(=O)OCC(=O)c2cc(C)n(C)c2C)cc(NC(=O)c2ccco2)c1OC,"inconclusive [inhibitor, full curve, poor fit]",
CCCCCCn1nc(C(=O)OCC(=O)c2c(N)n(C)c(=O)n(C)c2=O)c2ccccc2c1=O,active: 11.7 µM,
O=C(Cc1noc2ccccc12)Nc1ccc(Cl)cc1,,inactive: 40.5%

Compound,Potency,"activity change, negative = inhibition"
CCN1CCC2(CC1)C(C#N)=C(N)Oc1c2sc2nc(C)cc(C)c12,"inconclusive [inhibitor, single point]",
Cc1cccc(C)c1NC(=O)CNC(=O)c1cncc(Br)c1,,inactive: 18.3%
COc1ccc(CNC(=O)CN(C(=O)Cn2nnc(-c3ccccc3F)n2)c2ccc(C)cc2)cc1,"inconclusive [inhibitor, single point]",
CSc1cccc(NC(=S)N(CCCN2CCCC(C)C2)Cc2cccs2)c1 (stereo not drawn),"inconclusive [inhibitor, single point]",
CC(=O)Oc1cccc(N2C(=O)C3CC=C(Cl)CC3C2=O)c1 (stereo not drawn),active: 11.7 µM,
CC(C)c1ccc2oc(=O)cc(CN3CCCCC3)c2c1,active: 7.38 µM,
CC(=O)N1CCSc2ccc(S(=O)(=O)NCc3ccc(F)cc3)cc21,,inactive: -1.88%
CCCCCn1c2c(c(=N)c3ccccc31)CCC2,active: 0.657 µM,
O=C(Cn1c(NCCCO)nc2ccccc21)c1ccc(Cl)cc1Cl,active: 1.65 µM,
Brc1cc2c(cc1/C=N/Nc1nc(N3CCOCC3)nc(N3CCOCC3)n1)OCO2,"inconclusive [inhibitor, single point]",
Cc1onc(-c2ccccc2)c1C(=O)N1CCCSC1=Nc1ccccc1,active: 2.94 µM,
O=C(NCc1ccc2c(c1)OCO2)C1CCCN1C(=O)Nc1cccc(Cl)c1 (stereo not drawn),,inactive: 15.4%
CN1CCN(c2nc(-c3ccncc3)nc3ccccc23)CC1,active: 9.28 µM,
CCCc1cc(=O)[nH]c2nnc(SCC(=O)Nc3cccc(NC(C)=O)c3)n12,"inconclusive [inhibitor, single point]",
O=[N+]([O-])c1ccc2c(c1)oc1ccccc12,,inactive: 29.8%
COc1ccc2nc(C)cc(NCCN3CCOCC3)c2c1,"inconclusive [inhibitor, single point]",
CS(=O)(=O)N1CCN(c2ccc(C(=O)NC3C4CC5CC(C4)CC3C5)cc2[N+](=O)[O-])CC1 (stereo not drawn),"inconclusive [inhibitor, partial curve]",
CCN(CC)S(=O)(=O)c1cccc(C(=O)N/N=C/c2ccc([N+](=O)[O-])o2)c1,"inconclusive [inhibitor, full curve, poor fit]",
Cc1ccc(S(=O)(=O)/N=C2/C=C(Sc3ncn[nH]3)C(=O)c3ccccc32)c(C)c1,active: 2.08 µM,
Cn1c(=O)[nH]c(=O)c2c1nc(CN1CCN(c3cccc(Cl)c3)CC1)n2CCCc1ccccc1,active: 9.28 µM,
Cc1cccc(C(=O)OCC(=O)N(C)CC(=O)Nc2ccc(Cl)c(C(F)(F)F)c2)c1,"inconclusive [inhibitor, partial curve]",
CCC1CCCCN1C(=O)CCn1ccnc1 (stereo not drawn),"inconclusive [inhibitor, single point]",
CN(C)CCCN(C(=O)c1ccc(S(=O)(=O)N2CCc3ccccc32)cc1)c1nc2ccc(F)cc2s1,"inconclusive [inhibitor, partial curve]",

Compound,Potency,"activity change, negative = inhibition"
CCCc1cc(=O)[nH]c(SCC(=O)Nc2sc(C(N)=O)c(C)c2C(=O)OCCOC)n1,,inactive: -28.7%
CC(C)Sc1nnc([C@H](Cc2c[nH]c3ccccc23)NC(=O)OC(C)(C)C)o1,"inconclusive [inhibitor, partial curve]",
CCOC(=O)c1c(C)[nH]c(O)c1C=Nc1ccccc1,"inconclusive [inhibitor, full curve, poor fit]",
CCOc1ccc(NC(=O)c2sc3nc(N4CCOCC4)c4c(c3c2N)CC(C)(C)OC4)cc1,"inconclusive [inhibitor, partial curve, poor fit]",
O=C1NC(Cc2c[nH]c3ccccc23)C(=O)N1Cc1ccccc1 (stereo not drawn),,inactive: 9.72%
Cc1ccc(S(=O)(=O)Nc2cccc3ncccc23)cc1,"inconclusive [inhibitor, partial curve, poor fit]",
O=C1Nc2ccccc2C12OCCCO2,,inactive: 12.7%
Cc1ccc(COC(=O)c2cc(S(=O)(=O)N3CCCCC3)ccc2N2CCOCC2)cc1,active: 9.28 µM,
CCOc1ccccc1Nc1nnc(SC(C)C(=O)Nc2nc(-c3ccccc3)cs2)s1 (stereo not drawn),"inconclusive [inhibitor, single point]",
COc1ccccc1CNC(=O)c1cccc(S(=O)(=O)N2CCN(c3ccc(F)cc3)CC2)c1,active: 10.4 µM,
CC1=C(C(=O)OC(C)C)C(c2cn(-c3ccccc3)nc2-c2cccs2)NC(=O)N1 (stereo not drawn),"inconclusive [inhibitor, partial curve]",
Cc1ccc[n+](CC(=O)Nc2ccc([N+](=O)[O-])cc2)c1,"inconclusive [inhibitor, single point]",
Cc1cccn2c(=O)c(/C=C(\C#N)C(=O)NC3CCS(=O)(=O)C3)c(N3CCC(C(N)=O)CC3)nc12 (stereo not drawn),,inactive: -22.6%
NS(=O)(=O)c1ccc(NC(=S)NCc2ccco2)cc1,,inactive: 8.07%
Cn1cc(/C=C2\SC(=S)N(NC(=O)c3ccccc3Cl)C2=O)c2ccccc21,,inactive: -6.54%
Cc1ccc(NC(=O)C(=O)c2c(-c3ccccc3)cc3ccccn23)cc1S(=O)(=O)N1CCOCC1,active: 9.28 µM,
N#Cc1ccccc1S(=O)(=O)N1CCN(Cc2c(O)ccc3ccccc23)CC1,"inconclusive [inhibitor, single point]",
CCOC(=O)c1cnc(-n2cc(C)cn2)nc1Nc1ccccc1OCC,"inconclusive [inhibitor, partial curve]",
CCOc1ccc(CCNC(=O)C2CCN(c3nn4c(=O)cc(C)nc4s3)CC2)cc1,active: 10.4 µM,
Cn1c(N)c(C(=O)CSc2nnc(-c3c[nH]c4ccccc34)n2C2CC2)c(=O)[nH]c1=O,"inconclusive [inhibitor, partial curve]",
O=S(=O)(NCC(c1cccnc1)N1CCN(Cc2ccccc2)CC1)c1ccc(F)cc1 (stereo not drawn),"inconclusive [inhibitor, partial curve]",
CCn1c(C)c(C(C)=O)c(N2CCN(C(c3ccccc3)c3ccccc3)CC2)nc1=S,"inconclusive [inhibitor, single point]",
